For one test, the target named is T1, human TGF-β3 (human, UniProt P10600 301-412).
T1 construct: Bought protein; also called human TGF-3; human TGF-83 (misprints)
T1 sequence (looked up): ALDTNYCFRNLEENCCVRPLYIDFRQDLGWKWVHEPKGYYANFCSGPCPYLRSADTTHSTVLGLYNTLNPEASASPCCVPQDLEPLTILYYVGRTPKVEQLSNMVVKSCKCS
The test is described as follows: ELISA, human TGF-β3 coated, PET301 titrated, anti-human IgG Fc-HRP detection. The method, then: (§1) Analysis of binding of PET301 to human IL-1β and human TGF-β was performed by using ELISA. Human IL-1β (Sino Biological, 10139-HNAE), or human TGF-1 (R&D systems, 7754-BH), or human TGF-β3 (R&D systems, 8420-B3) were coated on a 96-well immunosorbent assay plate (Corning, 3590) at a concentration of 60 ng/well. Next day, the plate was washed with Phosphate Buffered Saline with Tween-20 (PBST; TEKNOVA, P1192). Blocking was performed by incubating the plate for 1 hour at room temperature using PBST to which 1% (w/v) bovine serum albumin (BSA) was added, and then the plate was washed 3 times. PET301 was diluted in PBST containing 1% (w/v) BSA to an appropriate concentration and treated in each well, binding was induced at room temperature for 1 hour, and the plate was washed three times. Peroxidase-bound anti-human IgG Fc goat antibodies (Invitrogen 31413) were diluted (1:10,000) in PBST containing 1% (w/v) BSA to induce binding, and washed 3 times with PBST, and then TMB substrate solution (Thermo Fisher Scientific, 34028) was reacted, and absorbance was measured at 450 nm. Based on the measured absorbance, EC₅₀ values were calculated by using the Prism 7 software (GraphPad Software) (A of FIG. 24A, B of FIG. 24A, A of FIG. 24B, and Table 4).
(ELISA stands for enzyme-linked immunosorbent assay.)

The target of the next test is T2, human IL-1β (human, UniProt P01584 117-269).
T2 construct: Bought protein; also called hIL-1β
The experiment in a line: ELISA, human IL-1β coated, PET301 titrated, anti-human IgG Fc-HRP detection. As to the method:
as §1

The target in the next test is T3, human TGF-β1 (human, UniProt P01137 part only).
T3 construct: Bought protein; also called human TGF-1; human TGF-31 (misprints)
The test is described as follows: ELISA, human TGF-β1 coated, PET301 titrated, anti-human IgG Fc-HRP detection. As to the method: as §1

The target of another test is T4, human TGF-β2 (human, UniProt P61812 303-414).
T4 construct: Bought protein; also called human TGF-2; human TGF-32 (misprints)
T4 sequence (looked up): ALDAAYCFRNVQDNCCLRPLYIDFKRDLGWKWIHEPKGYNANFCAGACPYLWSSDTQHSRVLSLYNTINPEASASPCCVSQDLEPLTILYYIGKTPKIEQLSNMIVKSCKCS
The test is described as follows: ELISA, PET301 coated, human TGF-β2 titrated, biotinylated anti-TGF-β2 antibody and streptavidin-HRP detection. As to the method:
Analysis of the binding capacity of PET301 and human TGF-β2 was performed by coating PET301 on a 96-well plate for immunosorbent assay (Corning, 3590) at a concentration of 60 ng/well. Blocking was carried out at room temperature for 1 hour in PBST containing 1% (w/v) BSA, and human TGF-2 (Peprotech, 100-35B) at an appropriate concentration was diluted in PBST containing 1% (w/v) BSA to induce a binding reaction for 1 hour at room temperature, and then, anti-TGF-β2 biotinylated antibodies (R&D systems, BAF302) were treated to induce a binding reaction at room temperature for 1 hour. Streptavidin-HRP (R&D systems) was treated to induce a binding reaction at room temperature for 30 minutes, and the subsequent processes were performed in the same manner as described above (B of FIG. 24B, Table 4).

Chain of human TGF-β1 (P01137 279-390 limits assumed): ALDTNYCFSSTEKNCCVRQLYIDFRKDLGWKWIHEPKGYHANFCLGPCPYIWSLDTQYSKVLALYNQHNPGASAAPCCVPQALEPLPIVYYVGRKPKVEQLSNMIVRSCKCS

B1: PET301, IL-1 and TGF-β bi-specific κλ heterodimeric polypeptide (Fc fusion)
chain 1: LEADKCKEREEKIILVSSANEIDVRPCPLNPNEHKGTITWYKDDSKTPVSTEQASRIHQHKEKLWFVPAKVEDSGHYYCVVRNSSYCLRIKISAKFVENEPNLCYNAQAIFKQKLPVAGDGGLVCPYMEFFKNENNELPKLQWYKDCKPLLLDNIHFSGVKDRLIVMNVAEKHRGNYTCHASYTYLGKQYPITRVIEFITLEENKPTRPVIVSPANETMEVDLGSQIQLICNVTGQLSDIAYWKWNGSVIDEDDPVLGEDYYSVENPANKRRSTLITVLNISEIESRFYKHPFTCFAKNTHGIDAAYIQLIYPVTNSGTVAAPRTVAAPSVFIFPPSDEQLKSGTASVVCLLNNFYPREAKVQWKVDNALQSGNSQESVTEQDSKDSTYSLSSTLTLSKADYEKHKVYACEVTHQGLSSPVTKSFNRGES[sequence of human IgG1 Fc with changes not given]GGGGSGGGGSGGGGSGGGGSGIPPHVQKSVNNDMIVTDNNGAVKFPQLCKFCDVRFSTCDNQKSCMSNCSITSICEKPQEVCVAVWRKNDENITLETVCHDPKLPYHDFILEDAASPKCIMKEKKKPGETFFMCSCSSDECNDNIIFSEEYNTSNPD
chain 2: SERCDDWGLDTMRQIQVFEDEPARIKCPLFEHFLKFNYSTAHSAGLTLIWYWTRQDRDLEEPINFRLPENRISKEKDVLWFRPTLLNDTGNYTCMLRNTTYCSKVAFPLEVVQKDSCFNSPMKLPVHKLYIEYGIQRITCPNVDGYFPSSVKPTITWYMGCYKIQNFNNVIPEGMNLSFLIALISNNGNYTCVVTYPENGRTFHLTRTLTVKVVGSPKNAVPPVIHSPNDHVVYEKEPGEELLIPCTVYFSFLMDSRNEVWWTIDGKKPDDITIDVTINESISHSRTEDETRTQILSIKKVTSEDLKRSYVCHARSAKGEVAKAAKVKQKVPAPRYTVEQPKAAPGQPKAAPSVTLFPPSSEELQANKATLVCLISDFYPGAVTVAWKADSSPVKAGVETTTPSKQSNNKYAASSYLSLTPEQWKSHRSYSCQVTHEGSTVEKTVAPTESDKTHTCPPCPAPELLGGPSVFLFPPKPKDTLMISRTPEVTCVVVDVSHEDPEVKFNWYVDGVEVHNAKTKPREEQYNSTYRVVSVLTVLHQDWLNGKEYKCKVSNKALPAPIEKTISKAKGQPREPQVCTLPPSREEMTKNQVSLSCAVKGFYPSDIAVEWESNGQPENNYKTTPPVLDSDGSFFLVSKLTVDKSRWQQGNVFSCSVMHEALHNHYTQKSLSLSPGAGGGGSGGGGSGGGGSGGGGSGIPPHVQKSVNNDMIVTDNNGAVKFPQLCKFCDVRFSTCDNQKSCMSNCSITSICEKPQEVCVAVWRKNDENITLETVCHDPKLPYHDFILEDAASPKCIMKEKKKPGETFFMCSCSSDECNDNIIFSEEYNTSNPD
notes: TGFβRII part is residues 24 to 184 of human TGFβRII (GenBank ACZ58377.1); also called IL-1/TGF-β bi-specific heterodimer
Take B1: the EC50 in the test with human TGF-β3 was 0.357 nM; with human IL-1β it was 0.226 nM; with human TGF-β1, 0.799 nM; with human TGF-β2, 3.08 nM.

The EC50 is the concentration giving half of the maximal effect. A low value points to greater potency.
